Reference: the supplement of paper PMC12217912
Some of the results follow. The full chains were built here from the parent and the listed change. Values near 0.05 are background.

B1: TEV protease; numbered along this chain (parent)
chain: MGESLFKGPRDYNPISSSICHLTNESDGHTTSLYGIGFGPFIITNKHLFRRNNGTLVVQSLHGVFKVKDTTTLQQHLVDGRDMIIIRMPKDFPPFPQKLKFREPQREERICLVTTNFQTKSMSSMVSDTSCTFPSGDGIFWKHWIQTKDGQCGSPLVSTRDGFIVGIHSASNFTNTNNYFTSVPKNFMELLTNQEAQQWVSGWRLNADSVLWGGHKVFMVKPEEPFQPVKEATQL
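Also: Bxb1 expression induced with 0.2% (w/v) L-rhamnose at OD600 near 0.5, cultures sampled hourly, flipped fraction per protease–substrate barcode pair counted by paired-end Illumina sequencing.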

Variants of: B1
Test: raw area under fraction-flipped curve 0-4 h after induction (AUC4h, not background-subtracted), DNA-recorder readout of cleavage of the substrate (dimensionless); higher = more cleavage of the substrate by the protease variant
Conditions: temperature: 34 °C; time window: 0-4 h after rhamnose induction
In the case of MGESLFKGPRDYNPISSSICHLTNESDGHTTSLYGIGFGPFIITNKHLFRRNNGTLVVQSLHGVFKVKDTTTLQQHLVDGRDMIIIRMPKDFPPFPQKLKFREPQREERPCLVTTNFQTKSMSSMVSDTSCTFPSGDGIFWKHWIQTKDGQCGSPLVSTRDGFIVGIHSASNFTNTNNYFTSVPKNFMELLTNQEAQQWVSGWRLNADSVLWGGHKVFMVKPEEPFQPVKEATQL [I110P], the “area with substrate EGLYFQS” value is reported as 0.0575, the “area with substrate EHLYFQS” value is reported as 0.0683 and the “area with substrate ELLYFQS” value is reported as 0.0468. For the same variant, the “area with substrate EQLYFQS” value was 0.0622, the “area with substrate ERLYFQS” value was 0.0378 and the “area with substrate ESLYFQS” value was 0.0509. For MGESLFKGPRDYNPISSSICHLTNESDGHTTSLYGIGFGPFIITNKHLFRRNNGTLVVQSLHGVFKVKDTTTLQQHLVDGRDMIIIRMPKDFPPFPQKLKFREPQREERICLVTTNFQTKSMSSMVSDTSCTFPSGDGIFWKHWIQTKDGQCGSPLVSTRDGFIVGIHSASNFTNTNNYFTSVPKNFMELLTDQEAQQWVSGWRLNADSVLWGGHKVFMVKPEEPFQPVKEATQL [N193D], the “area with substrate EGLYFQS” value was 0.112 and the “area with substrate EPLYFQS” value was 0.0935. In the case of MGESLFKGPRDYNPISSSICHLTNESDGHTTSLYGIGFGPFIITNKHLFRRNNGTLVVQSLHGVFKVKDTTTLQQHLVDGRDMIIIRMPKDFPPFPQKLKFREPQREERICLVTTNFQTKSMSSMVSDTSCTFPSGDGIFWKHWIQTKDGQCGSPLVSTRDGFIVGIHSASNFTNTNNYFTGVPKNFMELLTNQEAQQWVSGWRLNADSVLWGGHKVFMVKPEEPFQPVKEATQL [S182G], the “area with substrate EGLYFQS” value is reported as 0.0891, the “area with substrate EHLYFQS” value is reported as 0.11 and the “area with substrate EILYFQS” value is reported as 0.139. For the same variant, the “area with substrate EKLYFQS” value was 0.112, the “area with substrate ELLYFQS” value was 0.0877 and the “area with substrate EMLYFQS” value was 0.145. For the same variant, the “area with substrate EPLYFQS” value was 0.149, the “area with substrate EQLYFQS” value was 0.123 and the “area with substrate ERLYFQS” value was 0.0981. The “area with substrate ESLYFQS” value was 0.0948, the “area with substrate EWLYFQS” value was 0.143 and the “area with substrate EYLYFQS” value was 0.067. With MGESLFKGPRDYNPISSSICHLTNESDGHTTSLYGIGFGPFIITNKHLFRRNNGTLVVQSLHGVFKVKDTTTLQQHLVDGRDMIIIRMPKDFPPFPQKLKFREPQREERICLVTTNFQTKSMSSMVSDTSCTFPSGDGIFWKHWIQTKDGQCGSPLVSTRDGFIVGIHSASNFTNTNNYFTSVPKNFMELLTNQEAQQWVSGWRLNADSVLWQGHKVFMVKPEEPFQPVKEATQL [G213Q] the “area with substrate EGLYFQS” value was 0.0449 and the “area with substrate EVLYFQS” value was 0.0609. In the case of MGESLFKGPRDYNPISSSICHLTNESDGHTTSLYGIGFGPFIITNKHLFRRNNGTLVVQSLHGVFKVKDTTTLQQHLVDGRDMIIIRMPKDFPPFPQKLKFREPQREERICLVTTNFQTKSMSSMVSDTSCTFPSGDGIFWKHWIQTKDGQCGSPLVSARDGFIVGIHSASNFTNTNNYFTSVPKNFMELLTNQEAQQWVSGWRLNADSVLWGGHKVFMVKPEEPFQPVKEATQL [T159A], the “area with substrate EGLYFQS” value is reported as 0.0878, the “area with substrate EHLYFQS” value is reported as 0.155 and the “area with substrate EKLYFQS” value is reported as 0.111. The “area with substrate EMLYFQS” value was 0.139, the “area with substrate EPLYFQS” value was 0.0453 and the “area with substrate EQLYFQS” value was 0.106. The “area with substrate EVLYFQS” value was 0.0877 and the “area with substrate EYLYFQS” value was 0.118. In the case of MGESLFKGPRDYNPISSSICHLTNESDGHTTSLYGIGFGPFIITNKHLFRRNNGTLVVTSLHGVFKVKDTTTLQQHLVDGRDMIIIRMPKDFPPFPQKLKFREPQREERICLVTTNFQTKSMSSMVSDTSCTFPSGDGIFWKHWIQTKDGQCGSPLVSTRDGFIVGIHSASNFTNTNNYFTSVPKNFMELLTNQEAQQWVSGWRLNADSVLWGGHKVFMVKPEEPFQPVKEATQL [Q59T], the “area with substrate EELYFQS” value is reported as 0.117, the “area with substrate EFLYFQS” value is reported as 0.1 and the “area with substrate EHLYFQS” value is reported as 0.104. The “area with substrate EILYFQS” value was 0.0804, the “area with substrate ELLYFQS” value was 0.116 and the “area with substrate EMLYFQS” value was 0.143. For the same variant, the “area with substrate EVLYFQS” value was 0.0935 and the “area with substrate EWLYFQS” value was 0.109. For MGESLFKGPRDYNPISSSICHLTNESDGHTTSLYGIGFGPFIITNKHLFRRNNGTLVQQSLHGVFKVKDTTTLQQHLVDGRDMIIIRMPKDFPPFPQKLKFREPQREERICLVTTNFQTKSMSSMVSDTSCTFPSGDGIFWKHWIQTKDGQCGSPLVSTRDGFIVGIHSASNFTNTNNYFTSVPKNFMELLTNQEAQQWVSGWRLNADSVLWGGHKVFMVKPEEPFQPVKEATQL [V58Q], the “area with substrate EGLYFQS” value was 0.0477, the “area with substrate EILYFQS” value was 0.0487 and the “area with substrate EKLYFQS” value was 0.0688. For the same variant, the “area with substrate EMLYFQS” value was 0.0527, the “area with substrate EPLYFQS” value was 0.0583 and the “area with substrate ESLYFQS” value was 0.0487. The “area with substrate EYLYFQS” value was 0.0519. For MGESLFKGPRDYNPISSSICHLTNESDGHTTSLYGIGFGPFIITNKHLFRRNNGTLVVQSLHGVFKVKDTTTLQQHLVDGRDMIIIRMPKDFPPFPQKLKFREPQREERICLVTTNFQTKSMSSMVSDTSCTFSSGDGIFWKHWIQTKDGQCGSPLVSTRDGFIVGIHSASNFTNTNNYFTSVPKNFMELLTNQEAQQWVSGWRLNADSVLWGGHKVFMVKPEEPFQPVKEATQL [P134S], the “area with substrate EFLYFQS” value was 0.0718, the “area with substrate EGLYFQS” value was 0.0806 and the “area with substrate EILYFQS” value was 0.0815. The “area with substrate EMLYFQS” value was 0.0959, the “area with substrate EPLYFQS” value was 0.0973 and the “area with substrate EQLYFQS” value was 0.0874. For the same variant, the “area with substrate ERLYFQS” value was 0.0885, the “area with substrate ESLYFQS” value was 0.0892 and the “area with substrate EWLYFQS” value was 0.0286. In the case of MGESLFKGPRDYNPISSSICHLTNESDGHTTSLYGIGFGPFIITNKHLFRRNNGTLVVQSLHGVFKVKDTTTLQQHLVDGRDVIIIRMPKDFPPFPQKLKFREPQREERICLVTTNFQTKSMSSMVSDTSCTFPSGDGIFWKHWIQTKDGQCGSPLVSTRDGFIVGIHSASNFTNTNNYFTSVPKNFMELLTNQEAQQWVSGWRLNADSVLWGGHKVFMVKPEEPFQPVKEATQL [M83V], the “area with substrate EFLYFQS” value is reported as 0.0671, the “area with substrate EKLYFQS” value is reported as 0.0555 and the “area with substrate ELLYFQS” value is reported as 0.0785. The “area with substrate EMLYFQS” value was 0.0628. In the case of MGESLFKGPRDYNPISSSICHLTNESDGHTTSLYGIGFGPFIITNKHLFRRNNGTLVVQSLHGVFKVKDTTTLQQHLVDGRDMIIIRMPKDFPPFPQKLKFREPQREERICLVTTNFQTKSMSSMVSDTSCTFPSGDGIFWKHWIQTKDGQCGSPLVSTRDGFIVGIHSASYFTNTNNYFTSVPKNFMELLTNQEAQQWVSGWRLNADSVLWGGHKVFMVKPEEPFQPVKEATQL [N172Y], the “area with substrate EGLYFQS” value is reported as 0.0586, the “area with substrate EILYFQS” value is reported as 0.047 and the “area with substrate EPLYFQS” value is reported as 0.0634. For the same variant, the “area with substrate ETLYFQS” value was 0.0571, the “area with substrate EWLYFQS” value was 0.0681 and the “area with substrate EYLYFQS” value was 0.0562. With MGESLFKGPRDYNPISSSICHLTNESDGHTTSLYGIGFGPFIITNKHLFRRNNGTLVVQSLHGVFKVKDTTTLQQHLVDGRDMIIIRMPKDFPPFPQKLKFREPQREERICLVTTMFQTKSMSSMVSDTSCTFPSGDGIFWKHWIQTKDGQCGSPLVSTRDGFIVGIHSASNFTNTNNYFTSVPKNFMELLTNQEAQQWVSGWRLNADSVLWGGHKVFMVKPEEPFQPVKEATQL [N116M] the “area with substrate EFLYFQS” value was 0.102, the “area with substrate EHLYFQS” value was 0.13 and the “area with substrate EPLYFQS” value was 0.117. The “area with substrate ESLYFQS” value was 0.0637.
